About 450 (0.94%) of roughly 48,000 compounds were called active. About 19% were inconclusive and are not listed. Calls come from the whole dose curve; as a rule, active = well fitted inhibition curve with a large enough effect; inconclusive = small, poorly fitted or top-dose-only effect; inactive = no such curve, though single readings can be large or run the other way. Some of the results follow.
Assay: Primary qHTS for Identification of Small Molecule Inhibitors of Huntingtin Promoter Activity; note: nearly all actives have a fitted effect of over 50% in size
Settings: HEK293 HTT promoter firefly luciferase reporter (activity 0% = vehicle and -100% = no light), 24 h; series mostly up to 57.5 µM; activity change, negative = inhibition: at the top concentration
Procedure, shortened: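 Quantitative HTS used concentration series of up to 57.5 uM final on HEK293 luciferase reporter cells, 24 h at 37 degrees C. Readout was Dual-Glo firefly luminescence.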

Activity change, negative = inhibition, inactive:
COc1ccc(-c2cc(C(F)(F)F)c(C#N)c(SCC(=O)Nc3ccccc3F)n2)cc1 -7.15%
COc1ccc(-n2c(/C=C/c3c(C)[nH]c4ccccc34)nc3ccccc3c2=O)cc1 -6.13%
COc1cccc(CNc2nccn(-c3ccc(OC)c(OC)c3)c2=O)c1 -4.72%
Cc1nn(C)c2c1c(-c1ccccc1)cc(=O)n2Cc1ccc(Cl)cc1 0%
COc1ccccc1C(=O)Nc1ccc(OCc2cc(=O)n3ccc(C)cc3n2)cc1 0.631%
O=C(Cn1c2ncccc2c(=O)n1-c1ccccc1)Nc1ccc(Cl)cc1C(F)(F)F 11.9%
COc1ccc(C)cc1-n1c(-c2ccc(C)cc2)cc2c1CC(C)(C)CC2=O 12.5%
COCc1cc(C)nc2sc3c(c12)NC(c1ccc(O)cc1)N(c1ccc(C)cc1)C3=O (configuration not stated) -20.1%
O=C(OCc1cccc(C(F)(F)F)c1)c1ccc(-c2nnn(Cc3ccc(F)cc3)n2)cc1 -13.7%
Cc1nn(C(=O)c2ccccc2)c(C)c1S(=O)(=O)N1CCCCCC1 -11%
CCN(C(=O)c1cn(-c2ccc(OC)cc2)c(=O)c2ccccc12)c1cccc(Cl)c1 -25%
CCn1c(=N)c(C(=O)NC2CCCC2)cc2c(=O)n3ccccc3nc21 2.59%
COc1ccc(-c2nc3scc(CCNC(=O)c4cc(OC)cc(OC)c4)n3n2)cc1 -9.61% [at 11.5 µM]
CC(C)N1CCc2nc(SCC(=O)Nc3cccc(F)c3)[nH]c(=O)c2C1 -1.89%
CCOc1ccc(C(=O)OCc2cc(=O)n3cc(C)sc3n2)cc1 -0.931%
CCCCCn1cc2c(c1-c1ccc(Cl)cc1)c(=O)n(C)c(=O)n2C -6.63%
COc1ccccc1NC(=O)c1sc2ncn(Cc3ccccc3Cl)c(=O)c2c1C -0.593%
COC(=O)c1cccc(Nc2nn3c(=O)c4cc5c(cc4nc3s2)OCO5)c1 -1.52%
COc1ccc(S(=O)(=O)NCC(c2ccc(N(C)C)cc2)N2CCOCC2)cc1 (configuration not stated) -8.52%
Cc1ccc2[nH]c3c(=O)n(CC(=O)NC(C)C)ncc3c2c1 0.23%
COC(=O)Nc1nc2ccc(Sc3ccccc3)cc2[nH]1
COc1ccc(CNC(=O)CSc2ncc(S(=O)(=O)c3ccc(Br)cc3)c(=O)[nH]2)cc1 -11.5%
O=C(CSC1=Nc2ccccc2N=C(c2ccc(F)cc2)C1)NCc1ccccc1Cl -24.5%
Cc1nn(-c2ccc(N3CCOCC3)nn2)c(C)c1CCC(=O)NCc1ccccc1F -23%
O=C(O)c1cn(C2CC2)c2cc(N3CCNCC3)c(F)cc2c1=O
CCOc1ccc(CNC(=O)c2sc3ncnc(N(C)C4CCCCC4)c3c2C)cc1 -29.8%
NC(=O)c1ccccc1NC(=O)Cn1nc(Cc2cccnc2)c2ccccc2c1=O -16.3%
O=C(CSc1ncc(CO)n1Cc1ccc(Cl)cc1)NCc1ccc(F)cc1 -17.1%
COc1ccc(C(=O)Oc2cc(-c3ccc4c(c3)OCO4)cc(=O)c3c(C)oc(C)c23)cc1 -1.06%
Cc1cccc(NC(=O)CSc2nc(=O)n(Cc3ccccn3)c3c2CCC3)c1C -17.9%
Cc1ccc(Cl)cc1NC(=O)CSc1nc2c(c(=O)[nH]1)CN(Cc1ccccc1)CC2 -13.1%
COC(=O)c1cc2oc(C)cc2n1CC(=O)Nc1cc(Cl)ccc1OC -7.88%
CCOC(=O)c1ccc(NC(=O)CCc2c(C)nc3c(-c4ccc(F)cc4)c(C)nn3c2C)cc1 -10.3%
Cc1ccc(-c2onc(C)c2C)cc1S(=O)(=O)Nc1ccc(Cl)cn1 0.526%
Cc1ccccc1C(=O)Nc1ccc(C(=O)OCc2cc(=O)n3nc(C(C)C)sc3n2)cc1 0.194%
COc1ccc(NC(=O)C2Cc3ccccc3N2C(=O)c2ccccc2)cc1OC (configuration not stated) -19.3%
CCOc1ccc(NC(=O)N(C(C)C)C2CCN(C(C)=O)CC2)cc1 -17.2%
Cc1cccc(NC(=O)CSc2nc3c(oc4ccccc43)c(=O)n2-c2ccc(F)cc2)c1 -9.91%
COc1ccc(Nc2cc(C(=O)NCc3ccccc3)c3ccccc3n2)c(OC)c1 5.82%
O=S(=O)(c1ccc2nc(N3CCN(c4ccccc4)CC3)ccc2c1)N1CCCCC1 -17.1%
COc1ccc(-c2noc(-c3cccc(OC)c3OC)n2)cc1 44.5%
CCOc1ccc(-c2cn3c(n2)sc2cc(C(=O)NC4CCCc5ccccc54)ccc23)cc1 (configuration not stated) -12.7%
Cc1ccc(NC(=O)CC(C)S(=O)(=O)c2ccc3c(c2)NC(=O)CO3)cc1C (configuration not stated) 1.19%
COc1ccc(NC(=O)c2cn3c4c(ccc(Cl)c4c2=O)OC(C)C3)cc1OC (configuration not stated) -11%
CSc1ncc(C(=O)Nc2ccc(C(C)=O)cc2)c(-c2ccccc2)n1 37.4%
CCOc1ccc2nc(NC(=O)c3cc(=O)c4cc(C)cc(C)c4o3)sc2c1 0%
O=c1c2cnn(-c3ccc(F)cc3)c2ncn1Cc1ccc(F)cc1 -29.9%
COc1ccc(Cl)cc1NC(=O)Cn1cc2c(n1)CCC(C)C2 (configuration not stated) -29.7%
CSc1nnc2[nH]c(=O)cc(C)n12 -2.93%
COc1ccc(CNC(=O)C2Cc3cc(S(=O)(=O)N4CCCCCC4)ccc3N2C(C)=O)cc1 (configuration not stated) -0.934%
CCc1ccc(NC(=O)c2cc3c([nH]c2=O)CC(C)(C)CC3=O)cc1 32.9%
COc1ccc(CNC(=O)c2ccc(-c3nc(CSc4ccccc4)c(C)o3)cc2)c(OC)c1 -14.1%
CCOc1ccc2oc(=O)cc(CN3CCN(c4ccccc4)CC3)c2c1 -22%
N#Cc1c[nH]n2c(NC3CCCCC3)c(-c3cccc(Cl)c3)nc12 11.6%
COc1ccc(CCN2C(=O)N(c3ccccc3)C(=O)C2CC(=O)Nc2ccccc2)cc1 (configuration not stated) -26.1%
Cc1ccc(-c2nc(C)c(CCNC(=O)C(=O)Nc3ccc4c(c3)OCO4)s2)cc1 5.24%
CCOC(=O)C1CCN(CCC(=O)Nc2ccc(OC)cc2)CC1 -16.9%
Cc1nc(N2CCOCC2)c2c(C(=O)N3CCN(c4cccc(C)c4C)CC3)c(C)oc2n1 -26.4%
COc1cc(C(=O)N2CC(=O)Nc3ccc(C)cc3C2c2ccc(F)cc2)cc(OC)c1OC (configuration not stated) -10%
Cc1cc(C)c(NC(=O)CCC(=O)N2Cc3ccccc3Oc3ncccc32)c(C)c1 -14.6%
COC(=O)c1ccccc1NC(=O)Cn1c(=O)n(CCCC(=O)NCCc2ccc(OC)c(OC)c2)c(=O)c2ccccc21 -5.35%
CCCOc1ccc(C2c3c(oc4ccccc4c3=O)C(=O)N2c2nc(C)c(C(=O)OCC)s2)cc1 (configuration not stated) -11.7% [at 11.5 µM]

— PubChem BioAssay AID1508623 (National Center for Advancing Translational Sciences (NCATS), 2021)
